Experimental data: PubChem BioAssay AID1745853 (National Center for Advancing Translational Sciences (NCATS), 2022)
Some of the results follow. These are further read-outs of the screen, such as a control signal, another cell line or another target. No call is given for them.

Tests used:
Assay in all cases: Primary Screen for Target Class Profiling of Small Molecule Inhibitors of Methyltransferases
[1] = target: Glycine N-methyltransferase (Homo sapiens) (UniProt Q14749); details: purified enzyme, MTase-Glo SAH luminescence; measured here: GNMT inhibition; at 40 µM; stronger effect = lower value
In short: (§1)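 Each enzyme was reacted with SAM and its substrate, with compounds tested once at 40 uM; SAH formed was read by MTase-Glo luminescence.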

[2] = target: Guanidinoacetate N-methyltransferase (Homo sapiens) (UniProt Q14353); details: purified enzyme, MTase-Glo SAH luminescence; measured here: GAMT inhibition; at 40 µM; stronger effect = lower value
In short: as §1

[3] = target: Histamine N-methyltransferase (Homo sapiens) (UniProt P50135); details: purified enzyme, MTase-Glo SAH luminescence; measured here: HNMT inhibition; at 40 µM; stronger effect = lower value
In short: as §1

[4] = target: Nicotinamide N-methyltransferase (Homo sapiens) (UniProt P40261); details: purified enzyme, MTase-Glo SAH luminescence; measured here: NNMT inhibition; at 40 µM; stronger effect = lower value
In short: as §1

[5] = target: Phenylethanolamine N-methyltransferase (Homo sapiens) (UniProt P11086); details: purified enzyme, MTase-Glo SAH luminescence; measured here: PNMT inhibition; at 40 µM; stronger effect = lower value
In short: as §1
On the % scale 0 is the no-effect control and ±100 the full control effect.

Row | SMILES | activity change, negative = inhibition [1] [%] | activity change, negative = inhibition [2] [%] | activity change, negative = inhibition [3] [%] | activity change, negative = inhibition [4] [%] | activity change, negative = inhibition [5] [%]
1 | CC(C)n1c(=O)c2ccc(C(=O)NC3CCCC3)cc2n2c(=O)n(Cc3ccc(Cl)cc3)nc12 | -8.26 | -1.15 | -1.23 | -2.69 | -2.64
2 | O=C(NCc1ccccc1)c1cnc2n1CCN(Cc1c[nH]c3ccccc13)CC2 | -17.6 | -5.11 | -15.9 | -7.16 | -42
3 | COC(=O)c1cc2n(n1)CC(C)(C(=O)NC1CCC(C)CC1)N(Cc1cccc(C)c1)C2=O (configuration not stated) | 6.04 | 1.67 | 10.1 | -1.5 | 3.58
4 | CCN1C(=O)c2cc(C(=O)N3CCN(c4ccccc4F)CC3)nn2CC1(C)C(=O)NC1CCCC1 (configuration not stated) | 3.12 | 4.57 | -1.23 | 3.25 | 2.73
5 | N#Cc1cccc(C#N)c1-c1nc2c3ccccc3c3cc(Cl)ccc3c2[nH]1 | -19.1 | -17.1 | -21.2 | -42.5 | -26.4
6 | O=C(O)CC(=O)OC[C@H]1O[C@@H](Oc2ccc3c(c2)OC[C@H]2c4cc5c(cc4O[C@@H]32)OCO5)[C@H](O)[C@@H](O)[C@@H]1O | -3.36 | -3.4 | 4.66 | -14.7 | -9.78
7 | Cc1noc2c(N3CC[S+](=O)([O-])CC3)cc(-c3cccnc3)nc12 | -3.6 | -9.18 | -3.68 | -15.2 | -9.24
8 | CN(C)CCN(Cc1cccs1)c1ccccn1 | -1.21 | -1.22 | -20.1 | -11.6 | -3.77
9 | O=C1NN=C(c2ccccn2)C12CCN([S+](=O)([O-])c1cccc(C(F)(F)F)c1)CC2 | -16.6 | -17.4 | -14.5 | -24.3 | -11.1
10 | CC(C)n1nc(-c2cc3cc(O)ccc3[nH]2)c2c(N)ncnc21 | -26.6 | -12.8 | -44.3 | -34.9 | -31.3
11 | COCCn1c(C)cnc1CCNC(=O)NCC(C)C | -2.25 | -3.11 | -12.9 | -4.01 | -7.26
12 | CCCn1c(=O)c2ccc(C(=O)NC(C)C)cc2n2c(=O)[nH]nc12 | -3.14 | 4.82 | 2.23 | 3.63 | -6.22
13 | CC1CCCCC1NC(=O)C1(C)Cn2c(cc3occc32)C(=O)N1Cc1ccc(F)cc1 (configuration not stated) | -8.17 | 1.42 | -4.94 | -10 | -5.35
14 | Cc1ccccc1CN1C(=O)c2ccc(-c3ccccc3)n2CC1(C)C(=O)NC1CCCCC1 (configuration not stated) | 1.82 | 2.52 | 2.24 | -1.9 | -2.49
15 | CN(C)CCC[C@]1(c2ccc(F)cc2)OCc2cc(C#N)ccc21 | 3.28 | – | -61.3 | – | –
16 | CCc1ccc(NC(=O)Cn2nc3n(Cc4ccc(F)cc4)c(=O)c4ccccc4n3c2=O)cc1 | 3.2 | 0 | 2.75 | 0.176 | -0.131
17 | O=C(Cn1nc2n(c1=O)CCCC2)N1CCN(c2ccc(F)cc2)CC1 | -2.25 | -8.1 | -2.88 | -7.77 | -2.69
18 | CCC(C)NC(=O)CSc1nnc2n(Cc3ccccc3)c(=O)c3ccccc3n12 (configuration not stated) | -3.4 | 0 | 3.32 | -7.6 | -5.15
19 | CC1(C(=O)NC2CCCC2)Cn2cnc(C(=O)NCCC3=CCCCC3)c2C(=O)N1C1CC1 (configuration not stated) | -6.16 | 4.11 | -2.67 | -8.36 | -6.74

Row | SMILES | activity change, negative = inhibition [1] [%] | activity change, negative = inhibition [2] [%] | activity change, negative = inhibition [3] [%] | activity change, negative = inhibition [4] [%] | activity change, negative = inhibition [5] [%]
20 | Cc1ccc(NS(=O)(=O)c2cc3c(cc2C)n(C)c(=O)n3C)c(C)c1 | -2.14 | 4.44 | -11.7 | -15.6 | -3.48
21 | CCOC(=O)C1=C(C)NC(C)=C(C(=O)OCC)C1c1c(F)c(F)c(F)c(F)c1F | -0.401 | 11.4 | 7.92 | -15.8 | -0.257
22 | Cc1ccc(CNC(=O)Cn2ccc3cc(S(=O)(=O)N4CCCC4)ccc32)o1 | 3.98 | 0 | 7.07 | 6.71 | 5.29
23 | COc1ccc(CN2C(=O)c3cc4ccccc4n3CC2(C)C(=O)NCc2ccccc2OC)c(OC)c1 (configuration not stated) | -2.25 | 2.38 | -2.12 | -7.05 | -2.68
24 | COC1CC(O[C@H]2CC[C@@]3(C)C(CCC4C3[C@H](OC(C)=O)[C@@H](OC(=O)/C=C/c3ccccc3)[C@]3(C)C(C(C)=O)CC[C@]43O)C2)OC(C)C1OC1CC(OC)C(OC2CC(OC)C(OC3OC(C)C(OC4OC(CO)C(O)C(O)C4O)C(OC)C3O)C(C)O2)C(C)O1 (some centres not stated) | -3.29 | 2.48 | -3.03 | -6.42 | 1.41
25 | Cn1c2c(c3ccccc31)C(C(=O)NCc1ccc(F)cc1)N(c1ccc3c(c1)OCO3)C(=O)CS2 (configuration not stated) | -1.17 | 0 | 8.27 | 6.08 | 8.53
26 | Cc1cccc(CSc2nnc3n(CCC(C)C)c(=O)c4ccccc4n23)c1 | -0.591 | 2.13 | 6.75 | -7.17 | 3.75
27 | COc1ccc(-c2cc3n(n2)CC(C)(C(=O)NCc2ccccc2)N(Cc2ccccc2)C3=O)cc1 (configuration not stated) | 2.17 | 4.68 | 1.15 | 4.35 | -0.721
28 | CCOC(=O)c1cc2n(n1)CC(C)(C(=O)NC1CCCCCC1)N(Cc1ccccc1OCC)C2=O (configuration not stated) | -0.958 | 0.412 | -0.283 | -7.49 | 2.79
29 | Nc1nc(NCc2ccc(N3CCCC3=O)cc2)cc(C2CC(O)C2)n1 (configuration not stated) | -6.16 | -9.17 | -19.8 | -15.8 | 7.56
30 | CCOC(=O)c1cnn(-c2ccccc2)c1NC(=O)c1cc2nc(-c3ccco3)cc(C(F)(F)Cl)n2n1 | -4.37 | -19.2 | 4.43 | -36.6 | -6.08
31 | NC(=O)N1c2ccccc2C=Cc2ccccc21 | -2.54 | 2.37 | -1.16 | -8.4 | 4.44
32 | COc1cccc(NC(=O)CCc2nnc3n(CCCOC(C)C)c(=O)c4ccccc4n23)c1 | -1.36 | 0 | 5.54 | 11.1 | 1.16
33 | O[C@H]1CC[C@@H](Cc2cc(CN3CCN(c4ccccc4)CC3)on2)O[C@@H]1CNCc1ccccc1 | -3.74 | -4.62 | -0.705 | -2.15 | -3.24
34 | CC(C)Cn1c(=O)c2cc(F)ccc2n2c(SCc3ccccc3F)nnc12 | 1.76 | 2.3 | 2.75 | 0.305 | -2.9
35 | C=CC(=O)N1CCN(C(=O)CNc2cc(I)c(Cl)cc2O)CC1 | -5.87 | -12.8 | -0.499 | -24.7 | -36.7
36 | CN[C@@H](C)c1nc(C2CCOCC2)nn1CC1CCCCC1 | -2.7 | -2.31 | -0.292 | -6.23 | -0.088
37 | Cc1cccc(N(C)C(=O)Cn2c(=O)oc3cc(S(=O)(=O)N4CCCCC4)ccc32)c1 | -1.19 | 1.75 | 0.04 | 4.34 | -4.2
